This is one part of the list.
Experiments:
Experiment in all cases: glycan array binding signal (z-score within array); higher = stronger binding
Conditions in all cases: glycan notation: IUPAC condensed, linker removed; mutation: H59Q
[1] = molecular target: Man(a1-2)Man(a1-3)[Man(a1-2)Man(a1-6)]Man
Outline: (§1)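 Glycan array binding is given as a within-array Z-score, which can be read as non-binding when negative. The arrays, 3228 of them, came from the Consortium for Functional Glycomics database and were retained only where the protein sequence was available. Z-scores were averaged across arrays of the same protein sequence at different concentrations or buffers and across linkers.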

[2] = molecular target: Man(a1-2)Man(a1-3)[Man(a1-2)Man(a1-6)]Man(a1-6)[Man(a1-2)Man(a1-2)Man(a1-3)]Man
Outline: as §1

[3] = molecular target: Man(a1-2)Man(a1-3)[Man(a1-2)Man(a1-6)]Man(a1-6)[Man(a1-2)Man(a1-2)Man(a1-3)]Man(b1-4)GlcNAc(b1-4)GlcNAc
Outline: as §1

[4] = molecular target: Man(a1-2)Man(a1-3)[Man(a1-6)]Man(a1-6)[Man(a1-2)Man(a1-3)]Man(b1-4)GlcNAc(b1-4)GlcNAc
Outline: as §1

[5] = molecular target: Man(a1-2)Man(a1-6)[Man(a1-3)]Man(a1-6)[Man(a1-2)Man(a1-2)Man(a1-3)]Man
Outline: as §1

[6] = molecular target: Man(a1-2)Man(a1-6)[Man(a1-3)]Man(a1-6)[Man(a1-2)Man(a1-2)Man(a1-3)]Man(b1-4)GlcNAc(b1-4)GlcNAc
Outline: as §1

[7] = molecular target: Man(a1-3)[Man(a1-6)]Man
Outline: as §1

[8] = molecular target: Man(a1-3)[Man(a1-6)]Man(a1-6)[Man(a1-2)Man(a1-3)]Man(b1-4)GlcNAc(b1-4)GlcNAc
Outline: as §1

[9] = molecular target: Man(a1-3)[Man(a1-6)]Man(a1-6)[Man(a1-3)]Man
Outline: as §1

[10] = molecular target: Man(a1-3)[Man(a1-6)]Man(a1-6)[Man(a1-3)]Man(b1-4)GlcNAc(b1-4)GlcNAc
Outline: as §1

[11] = molecular target: Man(a1-3)[Man(a1-6)]Man(b1-4)GlcNAc(b1-4)GlcNAc
Outline: as §1

[12] = molecular target: Man(a1-3)[Man(a1-6)]Man(b1-4)GlcNAc(b1-4)[Fuc(a1-6)]GlcNAc
Outline: as §1

[13] = molecular target: Man(a1-6)Man
Outline: as §1

[14] = molecular target: Man(b1-4)GlcNAc
Outline: as §1

[15] = molecular target: MurNAc(b1-4)GlcNAc
Outline: as §1

[16] = molecular target: Neu5Ac(a2-3)Gal
Outline: as §1

[17] = molecular target: Neu5Ac(a2-3)Gal(b1-3)GalNAc
Outline: as §1

[18] = molecular target: Neu5Ac(a2-3)Gal(b1-3)GalNAc(b1-3)Gal(a1-4)Gal(b1-4)Glc
Outline: as §1

[19] = molecular target: Neu5Ac(a2-3)Gal(b1-3)GalNAc(b1-4)Gal(b1-4)Glc
Outline: as §1

[20] = molecular target: Neu5Ac(a2-3)Gal(b1-3)GalNAc(b1-4)[Neu5Ac(a2-3)]Gal(b1-4)Glc
Outline: as §1

[21] = molecular target: Neu5Ac(a2-3)Gal(b1-3)GalNAc(b1-4)[Neu5Ac(a2-8)Neu5Ac(a2-3)]Gal(b1-4)Glc
Outline: as §1

[22] = molecular target: Neu5Ac(a2-3)Gal(b1-3)GalNAc6S
Outline: as §1

[23] = molecular target: Neu5Ac(a2-3)Gal(b1-3)GlcNAc
Outline: as §1

[24] = molecular target: Neu5Ac(a2-3)Gal(b1-3)GlcNAc(b1-2)Man
Outline: as §1

[25] = molecular target: Neu5Ac(a2-3)Gal(b1-3)GlcNAc(b1-2)Man(a1-3)[GlcNAc(b1-4)][Neu5Ac(a2-3)Gal(b1-3)GlcNAc(b1-2)Man(a1-6)]Man(b1-4)GlcNAc(b1-4)GlcNAc
Outline: as §1

[26] = molecular target: Neu5Ac(a2-3)Gal(b1-3)GlcNAc(b1-2)Man(a1-3)[Neu5Ac(a2-3)Gal(b1-3)GlcNAc(b1-2)Man(a1-6)]Man(b1-4)GlcNAc(b1-4)GlcNAc
Outline: as §1

[27] = molecular target: Neu5Ac(a2-3)Gal(b1-3)GlcNAc(b1-2)[Neu5Ac(a2-3)Gal(b1-3)GlcNAc(b1-4)]Man(a1-6)[Neu5Ac(a2-3)Gal(b1-3)GlcNAc(b1-2)Man(a1-3)]Man(b1-4)GlcNAc(b1-4)GlcNAc
Outline: as §1

[28] = molecular target: Neu5Ac(a2-3)Gal(b1-3)GlcNAc(b1-3)Gal(b1-3)GlcNAc
Outline: as §1

[29] = molecular target: Neu5Ac(a2-3)Gal(b1-3)GlcNAc(b1-3)Gal(b1-4)GlcNAc
Outline: as §1

[30] = molecular target: Neu5Ac(a2-3)Gal(b1-3)GlcNAc(b1-3)GalNAc
Outline: as §1

[31] = molecular target: Neu5Ac(a2-3)Gal(b1-3)GlcNAc(b1-6)GalNAc
Outline: as §1

[32] = molecular target: Neu5Ac(a2-3)Gal(b1-3)GlcNAc6S
Outline: as §1

[33] = molecular target: Neu5Ac(a2-3)Gal(b1-3)[Fuc(a1-4)]GlcNAc
Outline: as §1

[34] = molecular target: Neu5Ac(a2-3)Gal(b1-3)[Fuc(a1-4)]GlcNAc(b1-3)Gal(b1-3)[Fuc(a1-4)]GlcNAc
Outline: as §1

[35] = molecular target: Neu5Ac(a2-3)Gal(b1-3)[Fuc(a1-4)]GlcNAc(b1-3)Gal(b1-4)[Fuc(a1-3)]GlcNAc
Outline: as §1

[36] = molecular target: Neu5Ac(a2-3)Gal(b1-3)[GlcNAc(b1-6)]GalNAc
Outline: as §1

[37] = molecular target: Neu5Ac(a2-3)Gal(b1-3)[Neu5Ac(a2-6)]GalNAc
Outline: as §1

[38] = molecular target: Neu5Ac(a2-3)Gal(b1-3)[Neu5Ac(a2-6)]GlcNAc(b1-3)[Fuc(a1-3)[Gal(b1-4)]GlcNAc(b1-6)]Gal(b1-4)Glc
Outline: as §1

[39] = molecular target: Neu5Ac(a2-3)Gal(b1-3)]Neu5Ac(a2-3)Gal(b1-4)]GlcNAc
Outline: as §1

[40] = molecular target: Neu5Ac(a2-3)Gal(b1-4)Glc
Outline: as §1

[41] = molecular target: Neu5Ac(a2-3)Gal(b1-4)GlcNAc
Outline: as §1

[42] = molecular target: Neu5Ac(a2-3)Gal(b1-4)GlcNAc(b1-2)Man
Outline: as §1

[43] = molecular target: Neu5Ac(a2-3)Gal(b1-4)GlcNAc(b1-2)Man(a1-3)[GlcNAc(b1-4)][Neu5Ac(a2-3)Gal(b1-4)GlcNAc(b1-2)Man(a1-6)]Man(b1-4)GlcNAc(b1-4)GlcNAc
Outline: as §1

[44] = molecular target: Neu5Ac(a2-3)Gal(b1-4)GlcNAc(b1-2)Man(a1-3)[Neu5Ac(a2-3)Gal(b1-4)GlcNAc(b1-2)Man(a1-6)]Man(b1-4)GlcNAc(b1-4)GlcNAc
Outline: as §1

[45] = molecular target: Neu5Ac(a2-3)Gal(b1-4)GlcNAc(b1-2)Man(a1-3)[Neu5Ac(a2-3)Gal(b1-4)GlcNAc(b1-2)Man(a1-6)]Man(b1-4)GlcNAc(b1-4)[Fuc(a1-6)]GlcNAc
Outline: as §1

B1: rAAL-H59Q (Agrocybe aegerita), Q6WY08 (protein)
chain: MQGVNIYNISAGTSVDLAAPVTTGDIVTFFSSALNLNAGAGNPNNTTLNLFAENGAYLLQIAFRLQENVIIFNSRQPDGPWLVEQRVSDVANQFAGIDGKAMVTVFDHGDKYQVVINEKTVIQYTKQISGLTLSLSYNATEETSIFSTVVEAVTYTGLALEHHHHHH
[1]
  glycan array binding signal (z-score): -0.008
[2]
  glycan array binding signal (z-score): -0.147
[3]
  glycan array binding signal (z-score): -0.132
[4]
  glycan array binding signal (z-score): -0.093
[5]
  glycan array binding signal (z-score): -0.026
[6]
  glycan array binding signal (z-score): -0.059
[7]
  glycan array binding signal (z-score): -0.103
[8]
  glycan array binding signal (z-score): -0.055
[9]
  glycan array binding signal (z-score): -0.121
[10]
  glycan array binding signal (z-score): -0.028
[11]
  glycan array binding signal (z-score): -0.085
[12]
  glycan array binding signal (z-score): -0.004
[13]
  glycan array binding signal (z-score): -0.107
[14]
  glycan array binding signal (z-score): -0.083
[15]
  glycan array binding signal (z-score): -0.127
[16]
  glycan array binding signal (z-score): -0.095
[17]
  glycan array binding signal (z-score): -0.066
[18]
  glycan array binding signal (z-score): -0.076
[19]
  glycan array binding signal (z-score): -0.108
[20]
  glycan array binding signal (z-score): -0.101
[21]
  glycan array binding signal (z-score): -0.144
[22]
  glycan array binding signal (z-score): -0.117
[23]
  glycan array binding signal (z-score): -0.11
[24]
  glycan array binding signal (z-score): -0.142
[25]
  glycan array binding signal (z-score): -0.066
[26]
  glycan array binding signal (z-score): -0.05
[27]
  glycan array binding signal (z-score): -0.061
[28]
  glycan array binding signal (z-score): -0.12
[29]
  glycan array binding signal (z-score): -0.112
[30]
  glycan array binding signal (z-score): -0.021
[31]
  glycan array binding signal (z-score): -0.045
[32]
  glycan array binding signal (z-score): -0.064
[33]
  glycan array binding signal (z-score): -0.062
[34]
  glycan array binding signal (z-score): -0.069
[35]
  glycan array binding signal (z-score): -0.068
[36]
  glycan array binding signal (z-score): -0.139
[37]
  glycan array binding signal (z-score): -0.121
[38]
  glycan array binding signal (z-score): -0.095
[39]
  glycan array binding signal (z-score): -0.15
[40]
  glycan array binding signal (z-score): -0.086
[41]
  glycan array binding signal (z-score): -0.078
[42]
  glycan array binding signal (z-score): -0.03
[43]
  glycan array binding signal (z-score): -0.07
[44]
  glycan array binding signal (z-score): 0.113
[45]
  glycan array binding signal (z-score): -0.072
